Some of the results follow.
Each compound was assayed on S. aureus RN4220 (assay: growth inhibition call (relative growth <= 0.2)). Conditions: 50 µM.

Growth inhibition call, inactive:
CC(C)NC(=O)Nc1ccc2c(c1)C(=O)N([C@@H](C)CO)C[C@@H](C)[C@H](CN(C)Cc1ccc(C(F)(F)F)cc1)OCCCC[C@H](C)O2
O=C(O)CCCCCCCC(=O)O
O=C(NCCO)c1cc2ccccc2c(=O)s1
C[C@H]1CCCCO[C@@H](CN(C)C(=O)Nc2ccc3c(c2)OCO3)[C@@H](C)CN([C@@H](C)CO)C(=O)c2cc(NC(=O)CCC(F)(F)F)ccc2O1
C[C@@H]1CN([C@H](C)CO)C(=O)c2cc(NS(=O)(=O)c3ccc(Cl)cc3)ccc2O[C@@H](C)CCCCO[C@H]1CN(C)S(=O)(=O)c1ccc(Cl)cc1
COCC(=O)Nc1ccc2c(c1)[C@@H]1C[C@H](CC(=O)N3CCOCC3)O[C@@H](CO)[C@@H]1O2
COC(=O)C(CC#Cc1ccc2c(c1)[C@]1(C(=O)N2)[C@H](c2ccc(OCCO)cc2)N2[C@H](c3ccccc3)[C@H](c3ccccc3)OC(=O)[C@H]2[C@@H]1C(=O)N1CCc2cc(OC)c(OC)cc2C1)C(=O)OC
COc1ccc(S(=O)(=O)N(C)C[C@@H]2OCCCC[C@@H](C)Oc3ccc(NC(=O)C4CCCCC4)cc3C(=O)N([C@H](C)CO)C[C@@H]2C)cc1
C[C@@H]1CCCCO[C@@H](CN(C)CC2CCCCC2)[C@H](C)CN([C@H](C)CO)C(=O)c2cc(NC(=O)NC3CCCCC3)ccc2O1
O=C1N[C@H](c2ccccc2)COCc2cn(nn2)CC[C@@H](Cc2ccc(C(F)(F)F)cc2)C(=O)N[C@H](c2ccccc2)COCc2cn(nn2)CC[C@H]1Cc1ccc(C(F)(F)F)cc1
Cc1noc(C)c1NC(=O)N(C)C[C@@H]1Oc2ccc(NC(=O)Nc3ccc(C(F)(F)F)cc3)cc2C(=O)N([C@H](C)CO)C[C@@H]1C
C[C@@H]1CN([C@@H](C)CO)C(=O)c2cc(C#Cc3ccccc3F)cnc2O[C@@H]1CN(C)C(=O)c1ccc2c(c1)OCO2
C[C@H]1CN([C@@H](C)CO)C(=O)Cc2cc(NC(=O)CCC(F)(F)F)ccc2O[C@H]1CN(C)Cc1ccc(Oc2ccccc2)cc1
CCCNC(=O)N[C@@H]1C=C[C@@H](CC(=O)N2CCN(C)CC2)O[C@H]1CO
C[C@H](CO)N1C[C@H](C)[C@H](CN(C)C(=O)Nc2ccccc2)OCCCC[C@H](C)Oc2ccc(NS(=O)(=O)c3ccccc3)cc2C1=O
O=C(c1cnc2ccccc2c1)C1CC1
C[C@@H]1CN([C@H](C)CO)C(=O)Cc2cc(NC(=O)Nc3cccc4ccccc34)ccc2O[C@@H]1CN(C)Cc1ccccc1
COc1ccc(S(=O)(=O)Nc2ccc3c(c2)C(=O)N([C@@H](C)CO)C[C@@H](C)[C@H](CN(C)Cc2ccc(Cl)c(Cl)c2)OCCCC[C@@H](C)O3)cc1
CC(C)(C)[S@@](=O)N1Cc2cc(C(=O)NCCN3CCCCC3)nc(-c3cccc(-c4cccc(C#N)c4)c3)c2[C@H]1CCO
C[C@H](CO)N1C[C@H](C)[C@@H](CN(C)CC2CC2)Oc2c(NS(=O)(=O)c3cccs3)cccc2C1=O
Cc1noc(C)c1S(=O)(=O)N(C)C[C@@H]1OCCCC[C@H](C)Oc2ccc(NS(C)(=O)=O)cc2C(=O)N([C@H](C)CO)C[C@H]1C
CC(C)NC(=O)N(C)C[C@H]1Oc2cc(C#Cc3cccc(F)c3)ccc2S(=O)(=O)N([C@H](C)CO)C[C@@H]1C
C[C@H]1CN([C@@H](C)CO)C(=O)Cc2cc(NC(=O)Cc3ccccc3)ccc2O[C@@H]1CN(C)C(=O)Nc1cccc2ccccc12
CNC[C@@H]1OCCCC[C@@H](C)Oc2ccc(NC(=O)Nc3ccc(C(F)(F)F)cc3)cc2C(=O)N([C@@H](C)CO)C[C@H]1C
Cc1noc(C)c1S(=O)(=O)Nc1ccc2c(c1)C(=O)N([C@H](C)CO)C[C@H](C)[C@@H](CN(C)S(=O)(=O)c1ccc(F)cc1)O2
C[C@@H]1CN([C@@H](C)CO)C(=O)c2cc(NC(=O)NC3CCCCC3)ccc2O[C@@H](C)CCCCO[C@H]1CN(C)Cc1ccc(Cl)c(Cl)c1
C[C@@H]1CN([C@H](C)CO)C(=O)c2cccc(NC(=O)C3CCCCC3)c2O[C@H]1CN(C)Cc1ccc(Cl)c(Cl)c1
C#CCN(O[C@@H](/C=C/[C@@H](O)Cc1ccccc1)C1CC1)[C@@H](Cc1ccc(-n2cc(CCC(=O)NO)nn2)cc1)C(=O)OC

Reference: the antibiotic and cytotoxicity screens of Wong et al. (2023)
